Out of some 52,000 compounds screened, about 4,300 (8.3%) were called active. Cut-off read from the data, not from the text of the source: active = survival mostly below about 52% (no sharp cut-off); inactive = mostly above about 56%. The list shows a part of the results.

The test deals with DeltatarO mutant. Nature of the test: growth inhibition of S. aureus wild type versus tarO mutant, primary screen, teichoic acid synthesis inhibitors, RN4220, OD600 (AID 463173). The conditions noted are these: OD600, 18 h, active compounds read low, screened at 18.75 µg/mL (by protocol).
In the case of `COC(=O)c1c(N)n(-c2ccc(OC)c(OC)c2)c2nc3ccccc3nc12`, the survival is inactive: 94%.
`N#Cc1nc(-c2ccc(COc3ccccc3)o2)oc1N1CCCCC1`: the survival is inactive: 48%.
Then `Cc1ccccc1NC(=O)Cn1c(=O)n(Cc2ccccc2)c(=O)c2c(C)c(C)sc21`, with inactive: 136%; and `CCCCCC1CC(CC(C)C(=O)Nc2nncs2)C(=O)O1` (centres undefined), with inactive: 106%.
Then `Cc1nn2c(=O)cc(COC(=O)c3ccccc3NC(=O)COc3ccccc3C)nc2s1`, with inactive: 78%; and `O=C(NCc1ccccc1F)c1ccc(CSc2nc3cccnc3n2Cc2ccccc2)cc1`, with inactive: 75%.
Turning to `Cc1ccc(SCc2nc(-c3ccc(C(=O)NCCc4ccc(Cl)cc4)cc3)oc2C)cc1`, the survival is active: -2%.
Regarding `COc1ccc(OC)c(NC(=O)[C@H](CSCc2ccccc2)N2Cc3ccccc3C2=O)c1`, the survival is inactive: 98%.
The value for `CCc1ccc(NC(=O)CS(=O)CC(=O)Nc2ccc(F)cc2F)cc1` (centres undefined) was inactive: 91%.
`COc1ccc(OC)c(CNc2nc3ccc(C)cc3n3nnnc23)c1`: the survival is inactive: 88%.
Then `COC(=O)c1cc2sc(Cl)cc2n1CC(=O)Nc1cc(C)cc(C)c1`, with inactive: 65%; and `COc1ccc(C)cc1NC(=O)c1cc(S(=O)(=O)N2CCCCC2)c[nH]1`, with inactive: 72%; and `Cc1cc(C)cc(NC(=O)CCCc2nc(-c3ccco3)no2)c1`, with inactive: 88%.
The value for `COc1ccc2c(CNCCc3cccs3)c(C(=O)O)n(Cc3ccc(F)cc3Cl)c2c1` was inactive: 118%; that for `Cn1c(=O)cc(SCC(=O)N2CCN(c3ccccc3F)CC2)c2ccccc21` was inactive: 77%; that for `CCC(Sc1nnc2c3ccccc3n(CC)c2n1)C(=O)Nc1nnc(C(C)C)s1` (centres undefined) was inactive: 87%.
The value for `COc1ccc(-c2cc3nc(C4CCN(C(=O)OC(C)(C)C)CC4)c(C(=O)Nc4cc(C)cc(C)c4)cn3n2)cc1` was inactive: 69%; that for `CCCN1CCN(CCCNC(=O)c2ccc3nc(Cc4ccccc4)oc3c2)CC1` was inactive: 64%.
As to `CCOc1ccc(NC(=O)CC2C(=O)N(c3cccc(C)c3)C(=O)N2Cc2cccs2)cc1` (centres undefined), the survival was inactive: 89%.
The value for `N#CCCn1cc(CO)c(-c2ccccc2)n1` was inactive: 95%; that for `CCCCN1CC(c2nc3ccccc3n2CCCCOc2cccc(C)c2C)CC1=O` (centres undefined) was active: 2%; that for `COc1ccc(CC(=O)Nc2ccc(-c3nc4ccccc4s3)c(C)c2)cc1OC` was active: 37%.
In the case of `COc1ccc(-c2cc(C(F)(F)F)nc(NCCc3ccccc3)n2)cc1OC`, the survival is inactive: 63%.
For the compound `Cc1csc2nc(COC(=O)c3ccccc3NC(=O)c3ccc(C(C)(C)C)cc3)cc(=O)n12`, the survival was inactive: 81%.
The value for `O=C(CCCn1c(=O)c2cccn2c2ccccc21)NCCc1ccc(Cl)cc1` was active: 32%; that for `CSc1nn(Cc2ccc(C)cc2)c(N)c1S(=O)(=O)c1ccccc1` was inactive: 63%.
Turning to `COC(=O)c1cc(-c2ccc(C)cc2)c2c(=O)n(C)c(=O)n(C)c2n1`, the survival was inactive: 107%.
Then `Cc1nc(-c2ccc(F)cc2)sc1CCNC(=O)C(=O)Nc1ccc2c(c1)OCCO2`, with inactive: 85%.
The value for `OCCN(CCO)c1ncnc2c1cnn2-c1ccc(F)cc1` was active: 6%.
Regarding `Nc1ncnc2nc(SCCO)[nH]c12`, the survival was active: 63%.
Then `COc1ccccc1C(=O)Oc1ccc(C(c2c(C)[nH][nH]c2=O)c2c(C)[nH][nH]c2=O)cc1`, with inactive: 68%; and `O=C(Nc1nncs1)Oc1ccccc1`, with inactive: 90%.
For the compound `Cc1cccc(-n2nc(C)c(C(=O)Nc3cc(C)ccc3C)c2-n2cccc2)c1`, the survival was inactive: 102%.
On to `Cc1ccc(-n2c(SCc3ccccc3)nc3c([nH]c4ccccc43)c2=O)cc1`, for which the survival was inactive: 88%.
Then `Cc1c(CC(=O)NCc2ccc(F)cc2)c(=O)oc2cc(O)c(Cl)cc12`, with inactive: 65%; and `COc1ccc(NC(=O)CC2NCCNC2=O)c(OC)c1` (centres undefined), with inactive: 77%; and `CCOc1cccc2sc(N(Cc3cccnc3)C(=O)c3ccc(C#N)cc3)nc12`, with inactive: 97%.
The value for `CCOC(=O)c1c(NC(=O)C2c3ccccc3Oc3ccccc32)sc(C)c1C` was active: 12%.
Then `CCOc1ccc(C(=O)OC(C)CN2CCCCC2)cc1` (centres undefined), with inactive: 96%; and `O=C(NCc1ccccc1Cl)c1ccc2oc(=O)n(Cc3ccccc3)c2c1`, with inactive: 72%.
As to `CC1CCN(c2nc3ccc(C(=O)NCc4ccccc4)cc3s2)CC1`, the survival is inactive: 77%.
As to `COc1ccc(Cn2c(SCc3ccc(C(=O)NC(C)c4ccccc4)cc3)nc3cccnc32)cc1` (centres undefined), the survival is inactive: 76%.
Regarding `CCC1(C)Cc2c(sc3nc(SC)n(-c4ccc(C)cc4)c(=O)c23)CO1` (centres undefined), the survival was active: 33%.
Then `Cc1nnc(NC(=O)c2ccccc2)s1`, with inactive: 71%; and `CCN(CC)C(=O)O[n+]1ccccc1C(C)C`, with inactive: 109%.
Then `Nc1nc(-c2ccco2)nn1S(=O)(=O)c1ccccc1`, with inactive: 84%.
The value for `Cc1cc(NC(=O)CCNS(=O)(=O)c2cccc3nsnc23)ccc1Br` was inactive: 102%.
On to `Cc1ccc(NC(=O)c2ccccc2Br)c(C(=O)c2ccccc2)c1`, for which the survival was active: 26%.
Take `O=C(Nc1ccc(Cl)cc1)C(NS(=O)(=O)c1cccs1)c1ccccc1` (centres undefined): the survival was active: 19%.
The value for `Cc1cccc(OCC(=O)Nc2nnc(S(=O)(=O)N3CCc4ccccc43)s2)c1` was active: 16%; that for `COCc1nnc(NC(C)=O)s1` was inactive: 99%.
With `CCOC(=O)C1CCCN(Cc2cn3c(-c4cccc(Br)c4)nnc3s2)C1` (centres undefined), the survival is inactive: 64%.
As for `Cc1ccc(-n2c(Cc3ccccc3)nnc2SCc2nc(-c3cccs3)no2)cc1C`, the survival is inactive: 66%.
Then `CCOC(=O)CNC(=O)N1CCN(c2nnc(C)c3c(C)n(-c4ccc(Cl)cc4)nc23)CC1`, with inactive: 87%.
The value for `COc1cc(NC(=O)CCCOc2cc(=O)n(C)c3ccccc23)cc(OC)c1OC` was inactive: 77%; that for `COc1ccc(OC)c(NC(=O)Cn2c(=O)cc(-c3ccccc3)c3c(C)nn(C)c32)c1` was inactive: 94%; that for `CCc1ccc(S(=O)(=O)c2nnn3c2nc(Nc2ccc(NC(C)=O)cc2)c2sccc23)cc1` was inactive: 61%.
Then `CCOc1ccc(N(Cc2ccccc2)C(=O)c2nc(S(C)(=O)=O)ncc2Cl)cc1`, with active: 24%; and `Cc1cccc(N2CCN(C(=O)CS(=O)(=O)Cc3nc(-c4ccccc4C)oc3C)CC2C)c1` (centres undefined), with inactive: 55%.

These data come from PubChem BioAssay AID463173 (ICCB-Longwood Screening Facility, Harvard Medical School, 2010).
